Results as given in PubChem BioAssay AID652104 (National Center for Advancing Translational Sciences (NCATS), 2013).
Hit rate of the full screen: of about 410,000 compounds, about 7,200 (1.8%) were called active. The shares of active, inactive and inconclusive entries below differ from those in the screen. The call rests on the fitted dose curve; in most records, active means well fitted activation curve with a large enough effect; inconclusive means small, poorly fitted or top-dose-only effect, or another doubt; inactive means no such curve, though single readings can be large or run the other way. No potency is given beside an inconclusive call; the fits are too rough.

test: qHTS of TDP-43 Inhibitors; conditions: TDP-43 expressing yeast growth rescue, BacTiter-Glo, 24 h; growth rescue (activation): at 46.1 µM (top of the series) unless noted; further: nearly all actives have a fitted effect of over 50% in size; on growth rescue (activation): % of control where 0% means no effect
Summary of the method: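 Growth rescue of TDP-43-toxic yeast measured as ATP luminescence (BacTiter-Glo). Cells grown to mid-log in raffinose, induced in galactose at OD600=0.02, exposed to compound 24 hr at 30 deg C.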
Potency means the concentration at half of the fitted maximal effect; tags describe the fitted curve by direction and shape.

Row | Compound | Potency | growth rescue (activation)
1 | CCC(CC)C(=O)Nc1cccc(-c2nc3cccnc3s2)c1C | inactive | –
2 | Cc1ccccc1C(=O)c1cccn1CC(=O)NC(C)CCc1ccccc1 (centres undefined) | inconclusive [activator, single point] | –
3 | Cc1c(C(=S)Nc2ccccc2)cnn1-c1ccccc1 | active: 15.8 µM | –
4 | Cc1ccc(SCCNC(=O)c2ccccc2)cc1 | inconclusive [activator, partial curve] | –
5 | CCC(=O)NC(c1ccccc1OC)c1ccc2cccnc2c1O (centres undefined) | inconclusive [activator, single point] | –
6 | CCOC(=O)Cn1nc(-c2ccccc2)nc1-c1ccccc1 | inconclusive [activator, single point] | –
7 | Brc1ccc(-c2nnc(Cc3ccccc3)o2)cc1 | inconclusive [activator, partial curve] | –
8 | O=Cc1c(NCc2ccco2)nc2ccccn2c1=O | inconclusive [activator, partial curve] | –
9 | O=[N+]([O-])c1ccc(N2CCN(c3ccccc3)CC2)nc1 | inactive | –
10 | O=C(CSc1ccc2ccccc2c1)NCc1cccs1 | inconclusive [activator, single point] | –
11 | O=C(Nc1cccc(C(=O)N2CCCCC2)c1)c1nsc2ccccc12 | active: 35.5 µM | –
12 | CCOc1ccccc1NC(=O)c1c(C)cc(C)nc1SCC(=O)c1cccc(OC)c1 | inconclusive [activator, partial curve] | –
13 | Cc1noc(NS(=O)(=O)c2ccc(N/C=C\C(=O)c3ccncc3)cc2)c1C | inactive | –
14 | O=C(Nc1ccc(Cl)c(Cl)c1)N1N=CCC1c1ccccc1 (centres undefined) | active: 22.4 µM | –
15 | COc1cc2cc(C(=O)N3CCOCC3)cc(-c3ccc(C)cc3)c2cc1OC | inactive | –
16 | Cc1ccc(-c2nnc(-c3ccccc3)c(-c3ccccc3)n2)cc1 | inconclusive [activator, full curve, poor fit] | –
17 | O=C(C1CCN(S(=O)(=O)c2ccc(Cl)s2)CC1)N1CCN(c2ccccc2)CC1 | active: 14.1 µM | –
18 | CC1CN=C(N(C(=O)Nc2ccccc2)c2ccc(F)cc2)S1 (centres undefined) | inconclusive [activator, full curve, poor fit] | –
19 | COc1ccccc1OCC(=O)N(Cc1nc(-c2ccc(Cl)cc2)no1)C(C)C | inconclusive [activator, partial curve, poor fit] | –
20 | CCOC(=O)c1ccc(OCC2c3cc(OC)c(OC)cc3CCN2C(=O)Cc2ccc(F)cc2)cc1 (centres undefined) | active: 20 µM | –
21 | CCOc1ccc(C(=O)N2CCN(c3cccc(Cl)c3)CC2)cc1 | inconclusive [activator, single point] | –
22 | COc1ccccc1NC(=O)CSc1nnc(-c2ccccc2)o1 | inconclusive [activator, partial curve] | –
23 | Cc1ccc(C(=O)NCC(=O)OCc2c(F)cccc2Cl)s1 | inconclusive [activator, partial curve] | –
24 | Cc1ccc(Cl)c(OCC(=O)N2CCc3ccccc3C2)c1 | inconclusive [activator, partial curve] | –
25 | O=C(N1CCN(c2ccccc2)CC1)C1(c2cccs2)CCOCC1 | inconclusive [activator, partial curve] | –

Row | Compound | Potency | growth rescue (activation)
26 | Cc1ccc(NC(=S)NNC(=O)c2c(Cl)c(C)nn2C)cc1 | inconclusive [activator, partial curve] | –
27 | O=C(NC(=S)NNC(=O)c1ccco1)c1ccc(F)cc1 | inconclusive [activator, partial curve] | –
28 | CCOc1ccccc1NC(=O)N1CCCC(c2nc(-c3ccc(C)o3)no2)C1 (centres undefined) | inconclusive [activator, partial curve] | –
29 | Cc1cccc(NC(=O)c2sc3nc4n(c(=O)c3c2C)N=C(c2ccc(F)cc2)CS4)c1C | inactive | –
30 | CCCc1nnc(NC(=O)CCN2C(=O)c3ccccc3C2=O)s1 | inconclusive [activator, partial curve] | –
31 | Cc1ccc(N2C(=O)CS(=O)(=O)C23C(=O)N(Cc2cccc(F)c2)c2ccccc23)cc1Cl (centres undefined) | inconclusive [activator, partial curve] | –
32 | CN1C(=O)/C(=C/c2cccc(Cl)c2)Sc2ccc(C(=O)N3CCOCC3)cc21 | active: 20 µM | –
33 | Cc1cc2cc3c(cc2nc1SCC(=O)Nc1nc(C)c(C)s1)OCO3 | inconclusive [activator, single point] | –
34 | O=S(=O)(NCCc1ccccc1)c1ccc(N2CCCCS2(=O)=O)cc1 | – | inactive: 5.64% [at 9.22 µM]
35 | CCN(CC)S(=O)(=O)c1ccc(NC(=O)[C@H](CSCc2ccccc2)N2Cc3ccccc3C2=O)cc1 | inconclusive [activator, partial curve] | –
36 | OC(c1ccc(F)c(F)c1)c1nc(-c2cccc(F)c2)cs1 (centres undefined) | active: 22.4 µM | –
37 | CC(=O)N1CCN(C(=O)CNC(=O)c2ccc(C)s2)CC1 | inactive | –
38 | Cc1ccc(SCC(=O)c2cc(C)c(O)c(C)c2)cc1 | active: 17.8 µM | –
39 | CCCCc1ccc(NC(=O)c2cc3c(=O)n4ccccc4nc3n2C)cc1 | inactive | –
40 | COc1ccc(-c2cc3ccccc3[nH]2)cc1 | inactive | –
41 | O=C(N/N=C/c1ccncc1)c1ccccc1OCc1ccc(Br)cc1 | active: 31.6 µM | –
42 | CC1Cc2ccccc2N1c1ncnc2nc[nH]c12 (centres undefined) | active: 20 µM | –
43 | Cc1ccc(/C=N/NC(=O)c2ccco2)s1 | inconclusive [activator, single point] | –
44 | Cc1sc2ncnc(N(C)Cc3cccs3)c2c1C | active: 12.6 µM | –
45 | CC(C)CC(=O)Nc1cccc(-c2nc3ncccc3o2)c1 | inconclusive [activator, partial curve, poor fit] | –
46 | Cc1cc(C)cc(NC(=O)C2CCCN(c3nnc(C)c4c(C)n(-c5ccccc5)nc34)C2)c1 (centres undefined) | inactive | –
47 | O=C(c1ccco1)N(Cc1cccnc1)c1nc2ccc(F)cc2s1 | inactive | –
48 | COc1ccc([C@H]2CC(=O)C=C(c3ccc4cc[nH]c4c3)C2)cc1 | active: 25.1 µM | –
49 | Cn1cc(CCC(=O)NCc2cccc(Cl)c2)c2ccccc21 | inconclusive [activator, single point] | –
50 | O=C(NC1CCCC1)c1cc2cc(Br)ccc2o1 | inconclusive [activator, partial curve] | –

Row | Compound | Potency | growth rescue (activation)
51 | O=C(O)c1cccc(Nc2ncnc3sccc23)c1 | – | inactive: -3.39% [at 9.22 µM]
52 | O=C(Nc1nccs1)c1ccc2ccccc2c1 | inconclusive [activator, partial curve] | –
53 | COC(=O)c1ccc(COc2nc(C)cc(C)c2C#N)o1 | inactive | –
54 | CCC(C)NC(=O)c1cc2c(Cl)nc3ccc(C)cc3c2s1 (centres undefined) | inconclusive [activator, partial curve] | –
55 | Cc1ccnc(NC(c2ccccc2)c2ccc3cccnc3c2O)c1 (centres undefined) | inconclusive [activator, single point] | –
56 | O=C(COC(=O)c1ccc2ncsc2c1)NCc1cccc(Cl)c1 | active: 28.2 µM | –
57 | CCCc1c(-c2cccc(Cl)c2)ncn1Cc1cccc(-c2ccccc2)c1 | inconclusive [activator, single point] | –
58 | CCn1c(-c2ccccc2Cl)nn(CC(=O)Nc2cc(Cl)ccc2Cl)c1=S | inconclusive [activator, single point] | –
59 | O=c1[nH]c2ccccc2c2ccc(Cl)cc12 | inconclusive [activator, partial curve] | –
60 | COc1ccc(S(=O)(=O)Nc2cc(Cl)ccc2OC)cc1 | active: 3.16 µM | –
61 | NC(=O)CC(NC(=O)c1ccccc1)c1ccc(N2CCN(c3ccccn3)CC2)c([N+](=O)[O-])c1 (centres undefined) | inconclusive [activator, partial curve] | –
62 | CCOc1ccc(S(=O)(=O)NCc2cccnc2)cc1C(C)C | inactive | –
63 | O=C(COc1ccc([N+](=O)[O-])cc1)Nc1cc(S(=O)(=O)N2CCCCC2)ccc1N1CCCCC1 | inconclusive [activator, single point] | –
64 | Cc1cccc(C)c1N=Cc1c(O)n(-c2nccs2)c(=O)c2ccccc12 | inconclusive [activator, partial curve] | –
65 | COc1cccc(C=C2Cc3ccccc3C2=O)c1 | inconclusive [activator, partial curve] | –
66 | CC1(Br)C(Sc2ccccc2[N+](=O)[O-])=Nc2ccccc21 (centres undefined) | – | inconclusive: -84.5% [activator]
67 | CN(C(=O)c1ccccc1C(=O)OCC(=O)Nc1cccc(Br)c1)c1ccccc1 | inconclusive [activator, single point] | –
68 | CN1CCN(CC#CCC(O)(c2ccccc2)c2ccccc2)CC1 | inactive | –
69 | Cc1cc(C)cc(C(=O)NC(CC(N)=O)c2ccc(N3CCN(c4ccccc4)CC3)c([N+](=O)[O-])c2)c1 (centres undefined) | inconclusive [activator, partial curve] | –
70 | Cc1ccc(S(=O)(=O)Nc2ccc(-n3cnnn3)cc2)cc1 | inactive | –
71 | COc1ccc(CNC(=O)Cc2c(C)c3c(O)cc(C)cc3oc2=O)cc1 | inactive | –
72 | COc1ccc(CNC(=O)CN(c2ccc(C(C)=O)cc2)S(=O)(=O)c2ccc(C)cc2)cc1OC | inconclusive [activator, partial curve] | –
73 | CCN1CCN(C(=O)Cn2c(-c3cccs3)cc3cc(Cl)ccc32)CC1 | inactive | –
74 | Cc1ccc(C(=O)N2CC(=O)Nc3ccc(Br)cc3C2c2ccc(F)cc2)cc1C (centres undefined) | inconclusive [activator, partial curve] | –
